From PubChem BioAssay AID686978 (National Center for Advancing Translational Sciences (NCATS), 2013)
Several values for one entry are separate records, joined by “and”; a condition that tells them apart may be missing. Equal values may be shown once. Screen size: about 420,000 compounds; about 64,000 (15%) were called active. The inconclusive results got no clear call from the source; some entries with a clear call stand among them for comparison. Calls follow the shape of the dose curve; as a rule, active = well fitted inhibition curve with a large enough effect; inconclusive = small, poorly fitted or top-dose-only effect; inactive = flat fitted curve, though single readings scatter. Potencies of inconclusive entries are left out as doubtful fits.

Assay: qHTS for Inhibitors of human tyrosyl-DNA phosphodiesterase 1 (TDP1): qHTS in cells in absence of CPT; also: nearly all actives have a fitted effect of over 55% in size
Conditions: DT40 Tdp1-/- hTDP1 cells, no CPT, ATP luminescence, 48 h; activity change, negative = growth inhibition: at 46.2 µM (top of the series) unless noted
In short: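 Chicken DT40 Tdp1-/- cells complemented with human TDP1, screened without camptothecin (DMSO vehicle only), 400 cells/well. Compounds pin-transferred, cells incubated at 37 °C for at least 48 hr. Growth read as ATP-dependent luminescence (CellTiter-Glo, 30 min at RT).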
% is scaled to controls: 0 for no effect and ±100 for the full control effect; potency is read from the fitted curve at half-maximal effect; tags tell the direction and shape of the fitted curve.

Q: Which Potency does the source give for `CC(C)(C)SCCNC(=O)/C=C/c1ccc(F)cc1` here?
A: inconclusive [inhibitor, single point]

Q: With `COc1cc(N)c(Cl)cc1C(=O)OCC(=O)c1ccc2c(c1)NC(=O)CO2` as the molecule, how does the Potency read?
A: inconclusive [inhibitor, partial curve]

Q: With `O=C(N/N=C/c1ccc(Cl)c(Cl)c1)c1ccc2nc[nH]c2c1` as the molecule, how does the Potency read?
A: active: 23.1 µM

Q: With `COc1ccc(-c2nc(NC(=O)Cn3ccc(C(F)(F)F)n3)sc2C)cc1` as the molecule, how does the Potency read?
A: inconclusive [inhibitor, single point]

Q: For `CCOC(=O)c1ccc(NC(=O)c2noc3c2CCCC3)cc1`, which Potency is on record?
A: inconclusive [inhibitor, single point]

Q: Which Potency does the source give for `CC(C)S(=O)(=O)C1=NSC2=NC(=O)/C(=C\c3ccc(-c4ccccc4)o3)C(=N)N21` here?
A: inconclusive [inhibitor, single point]

Q: For `CCC(CO)Oc1cc(NC(=O)c2cccc(OC)c2)c2ncn(C(C)C)c2c1` (stereo not given), which Potency is on record?
A: inconclusive [inhibitor, partial curve]

Q: With `CC(C)(C)c1cc(/C=N/NC(=O)Cc2nc3ccccc3[nH]2)cc(C(C)(C)C)c1O` as the molecule, how does the Potency read?
A: inconclusive [inhibitor, partial curve]

Q: Which Potency does the source give for `CC(C)(C)C(=O)NC(=S)Nc1ccc(Cc2ccncc2)cc1` here?
A: inconclusive [inhibitor, partial curve]

Q: With `CCOC(=O)C(C)Sc1nc(-c2ccco2)cc(C(F)(F)F)c1C#N` (stereo not given) as the molecule, how does the Potency read?
A: inconclusive [inhibitor, single point]

Q: With `CCN(c1ccccc1)c1ncnc2c1cnn2-c1ccc(OC)cc1` as the molecule, how does the Potency read?
A: active: 5.17 µM

Q: Which Potency does the source give for `CNC(=O)c1nc(C)n(-c2ccc(Cl)cc2Cl)n1` here?
A: inconclusive [inhibitor, single point]

Q: For `COC(=O)c1ccc(/C=N/N2CCN(Cc3ccc(C)cc3C)CC2)cc1`, which Potency is on record?
A: inconclusive [inhibitor, single point]

Q: For `CC(C)(C)OC(=O)C[C@H]1C/C=C\C[C@@H](CC(=O)N[C@@H](CO)Cc2ccccc2)C(=O)NC[C@@H](c2ccccc2)OC1=O`, which Potency is on record?
A: inactive

Q: With `COc1ccc(CN2CCc3c([nH]c4ccccc34)C2)c(OC)c1C` as the molecule, how does the Potency read?
A: inconclusive [inhibitor, single point]

Q: Which Potency does the source give for `O=S(=O)(Nc1ccc(-c2ccccc2)cc1)c1ccccc1` here?
A: inconclusive [inhibitor, single point]

Q: With `CCN(CC(=O)Nc1ccc2c(c1)OCCO2)C(=O)/C=C/c1cc(Br)ccc1OC` as the molecule, how does the Potency read?
A: inconclusive [inhibitor, single point]

Q: Which Potency does the source give for `CC(C)CC(=O)Nc1ccccc1N1CCN(C(=O)c2ccccc2)CC1` here?
A: inactive

Q: For `CCc1ccc2[nH]c3nc(SCc4nnc(-c5ccccc5)o4)nnc3c2c1`, which Potency is on record?
A: inconclusive [inhibitor, partial curve]

Q: For `Nc1ncnc(Nc2ccc(F)cc2)n1`, which Potency is on record?
A: inactive

Q: For `Cc1ccc(S(=O)(=O)c2ncccc2[N+](=O)[O-])cc1`, which Potency is on record?
A: active: 0.651 µM

Q: For `COc1ccc(-c2cc(NC=O)c3ncc(-c4cccc(C(=O)NCCN(C)C)c4)n3c2)cc1`, which Potency is on record?
A: inconclusive [inhibitor, single point]

Q: Which Potency does the source give for `CCc1ccc(NC(=O)C2CCN(S(=O)(=O)c3ccc4c(c3)CC(C)N4C(C)=O)CC2)cc1` (stereo not given) here?
A: active: 10.3 µM

Q: Which Potency does the source give for `O=C(O)c1ccc(CSc2nnnn2-c2ccc(F)cc2)cc1` here?
A: inactive

Q: For `CC(=O)Nc1ccc(S(=O)(=O)NNC(=O)c2cccc(Cl)c2)cc1`, which Potency is on record?
A: inactive

Q: With `COc1ccc(CCNC(=O)c2ccc3nc(-c4ccco4)c(-c4ccco4)nc3c2)cc1OC` as the molecule, how does the Potency read?
A: active: 20.6 µM

Q: Which Potency does the source give for `NS(=O)(=O)c1ccc(CNC(=O)c2ccccc2SCC(=O)N2CCCC2)cc1` here?
A: inconclusive [inhibitor, single point]

Q: With `O=S(=O)(NCCc1nnc2ccc(SCc3cccc(Cl)c3)nn12)c1ccccc1` as the molecule, how does the Potency read?
A: active: 18.4 µM

Q: For `Cc1cc(N2CCN(C)CC2)nc2ccc(NC(=O)Nc3ccc(F)cc3)cc12`, which Potency is on record?
A: inconclusive [inhibitor, single point]

Q: With `COc1ccc(C2CC(=O)C(C=NCCO)=C(O)C2)cc1` (stereo not given) as the molecule, how does the Potency read?
A: inactive

Q: For `OCCOCCn1c(CCNc2nc(-c3ccc(F)cc3)cs2)nc2cc(C(F)(F)F)ccc21`, which Potency is on record?
A: inconclusive [inhibitor, partial curve, poor fit]

Q: For `COc1cc(CNn2c(C)n[nH]c2=S)cc(Cl)c1OCc1ccc(F)cc1`, which Potency is on record?
A: inactive

Q: With `CCN(CC)N=Nc1ccc(S(=O)(=O)Nc2c(C)n(C)n(-c3ccccc3)c2=O)cc1` as the molecule, how does the Potency read?
A: inactive

Q: Which Potency does the source give for `CCN1CCN(Cc2ccc(NC(=O)c3cc(NC(=O)c4cc5cccc(OC)c5o4)cc(OC)c3)cc2C(F)(F)F)CC1` here?
A: active: 9.2 µM and active: 4.61 µM

Q: For `Cc1ccc(NS(=O)(=O)c2cccc(C(=O)N3CCN(c4ncccn4)CC3)c2)cc1`, which Potency is on record?
A: inconclusive [inhibitor, single point]

Q: Which Potency does the source give for `COc1ccc(NC(=O)c2ccc(COc3ccccc3Br)o2)c(OC)c1` here?
A: inconclusive [inhibitor, single point]

Q: For `Cc1cccc(N2CCN(C(=O)CCNS(=O)(=O)c3ccc4c(c3)oc(=O)n4C)CC2C)c1` (stereo not given), which Potency is on record?
A: inconclusive [inhibitor, partial curve]

Q: Which Potency does the source give for `O=C1c2cccc3cccc(c23)C(=O)N1c1cccnc1` here?
A: inactive

Q: With `CC12CCC(C(=O)Nc3ccc(Cl)cc3)([C@H](Br)C1=O)C2(C)C` (stereo not given in full) as the molecule, how does the Potency read?
A: inconclusive [inhibitor, partial curve, poor fit]

Q: For `CC(C)(C)OC(=O)NCc1ccc(NC(=O)c2nc[nH]c2C(=O)Nc2cc(Br)ccc2F)cc1`, which Potency is on record?
A: active: 13 µM

Q: With `Brc1ccccc1CN1CCC(Cc2ccccc2)CC1` as the molecule, how does the Potency read?
A: inconclusive [inhibitor, single point]

Q: With `Cc1ccc(Cc2c(C3CCCCC3)nc3ccc(Br)cn23)cc1` as the molecule, how does the Potency read?
A: active: 20.6 µM

Q: For `NS(=O)(=O)c1ccc(N2CCN(C(=O)C3COc4ccccc4O3)CC2)nc1` (stereo not given), which Potency is on record?
A: inconclusive [inhibitor, single point]

Q: For `CC(=O)Nc1ccc(S(=O)(=O)Nc2nc3ccccc3nc2Nc2ccc3ccccc3c2)cc1`, which Potency is on record?
A: inconclusive [inhibitor, single point]

Q: For `Cc1ncc([N+](=O)[O-])n1CCOC(=O)C12CC3CC(CC(C3)C1)C2`, which Potency is on record?
A: inactive

Q: For `O=C(O)CN1C(=O)S/C(=C\c2cccnc2)C1=O`, which Potency is on record?
A: inactive

Q: With `O=C(Cn1c(=O)n(Cc2ccco2)c(=O)c2sc3ccccc3c21)Nc1ccc(F)cc1F` as the molecule, how does the Potency read?
A: active: 10.3 µM

Q: For `COc1ccc(Cl)cc1NC(=O)c1cc(S(=O)(=O)N2CCCC2)cn1C`, which Potency is on record?
A: inactive

Q: Which Potency does the source give for `COc1ccc(C2C(C(=O)N3CCN(c4ccccn4)CC3)CC(=O)N2c2ccc(OC)cc2)cc1` (stereo not given) here?
A: inconclusive [inhibitor, partial curve]

Q: With `FC(F)(F)c1cc(Cl)c2nc(-c3cccc(Cl)c3)c(Cc3cccc(Cl)c3)n2c1` as the molecule, how does the Potency read?
A: inactive

Q: For `CC(C)(C)CC(=O)Nc1nnc(SCC(=O)N2CCCCC2)s1`, which activity change, negative = growth inhibition is on record?
A: inconclusive: -31.2% [inhibitor]

Q: With `N#CCOC(=O)c1cc(S(=O)(=O)N2CCCCC2)ccc1N1CCOCC1` as the molecule, how does the Potency read?
A: inactive

Q: Which Potency does the source give for `COc1cccc(C(C(=O)NC(C)(C)C)N(CC(C)C)C(=O)CCC(=O)Nc2cc(C)on2)c1OC` (stereo not given) here?
A: inconclusive [inhibitor, single point]

Q: For `Cc1ccc(SCC(=O)N2CCN(S(=O)(=O)c3cccs3)CC2)cc1`, which Potency is on record?
A: inconclusive [inhibitor, single point]

Q: For `C/C(=N/NC(=O)COc1cc(C)ccc1C(C)C)C(=O)O`, which Potency is on record?
A: inactive

Q: Which Potency does the source give for `CC1CCCCC1NC(=O)CSc1nncn1N` (stereo not given) here?
A: inactive

Q: With `COc1cccc(NC(=O)c2ccc3c(c2)CCCC3)c1` as the molecule, how does the Potency read?
A: inconclusive [inhibitor, single point]

Q: Which Potency does the source give for `O=c1[nH]c(/C=C/c2ccc(Br)cc2)nc2ccccc12` here?
A: inactive

Q: With `COCC(=O)N1CCC(Oc2ccc(C(=O)N3CCSCC3)cc2)CC1` as the molecule, how does the Potency read?
A: inactive

Q: For `CCOC(=O)c1c(NC(=O)C[n+]2ccc(Cc3ccccc3)cc2)sc(C)c1C`, which Potency is on record?
A: active: 6.51 µM

Q: For `O=C(C1CCCN(Cc2ccc(Br)cc2)C1)N1CCCCC1` (stereo not given), which Potency is on record?
A: inconclusive [inhibitor, partial curve, poor fit]

Q: With `CC(=O)c1csc(COc2ccccc2)n1` as the molecule, how does the Potency read?
A: inconclusive [inhibitor, full curve, poor fit]

Q: Which Potency does the source give for `COCC(=O)N=Nc1c(O)[nH]c2ccccc12` here?
A: inactive

Q: With `Cc1cn([C@H]2C[C@H](O)[C@@H](CNCc3cccn3-c3nccs3)O2)c(=O)[nH]c1=O` as the molecule, how does the Potency read?
A: inactive

Q: With `CCC(=O)N1CCc2cc(Br)cc(S(=O)(=O)NC3CCN(Cc4ccccc4)CC3)c21` as the molecule, how does the Potency read?
A: inconclusive [inhibitor, partial curve, poor fit]

Q: Which Potency does the source give for `COc1cccc(NC(=O)c2ccc3c(c2)OCCO3)c1` here?
A: inconclusive [inhibitor, single point]

Q: For `Cc1cc(C)n(-c2ccc(Cl)c(C(=O)Nc3cc(C(F)(F)F)ccc3Cl)n2)n1`, which Potency is on record?
A: inconclusive [inhibitor, single point]

Q: With `COc1ccc(-n2nc(C(=O)Nc3nc4ccc(OC)cc4s3)c3ccccc3c2=O)cc1` as the molecule, how does the Potency read?
A: inconclusive [inhibitor, partial curve]

Q: For `CCOC(=O)C(C)Sc1nc(-c2ccccc2)nc2ccc(F)cc12` (stereo not given), which Potency is on record?
A: inconclusive [inhibitor, single point]

Q: With `CCOC(=O)CCc1c(C)c2cc3c(c(C)c2oc1=O)OCN(CCc1ccccc1OC)C3` as the molecule, how does the Potency read?
A: inconclusive [inhibitor, single point]
